PubChem BioAssay AID602233 (National Center for Advancing Translational Sciences (NCATS), 2012)
“And” between values parts separate entries of the source, which are not always exact repeats. Identical values can stand only once. In all, about 380,000 compounds went through this assay and about 170 (0.045%) were called active. Inconclusive means that the source gave no clear call. Such entries were picked first, then a sample of the others. Calls follow the shape of the dose curve; as a rule, active = well fitted inhibition curve with a large enough effect; inconclusive = small, poorly fitted or top-dose-only effect; inactive = no such curve, though single readings can be large or run the other way. Potencies of inconclusive entries are doubtful fits and often do not repeat.

target: Phosphoglycerate kinase, glycosomal (Trypanosoma brucei brucei) (UniProt P07378); assay: qHTS Assay to Find Inhibitors of Phosphoglycerate Kinase; conditions: PGK/GAPDH coupled, Kinase-Glo luminescence, 60 min; series mostly up to 57.5 µM; also: nearly all actives have a fitted effect of over 60% in size
Method in brief: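 Luminescent ATP detection (Kinase-Glo Plus) follows a 60-minute room-temperature incubation, with wells lacking PGK as controls. Buffer: 100 mM TEA (pH 7.6), 5 mM MgCl2, 0.01% Tween-20. Coupling enzyme GAPDH (100 nM final) supplies unstable 1,3-BPG in-well.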
Potency is read from the fitted curve at half-maximal effect; tags tell the direction and shape of the fitted curve.

Row | Compound | Potency
1 | COC(=O)c1ccc(C(=O)OC)c(NC(=O)Cc2cccs2)c1 | inconclusive: 17.8 µM [inhibitor, partial curve]
2 | Nc1cc(C(=O)O)c(N)c2c1C(=O)c1ccccc1C2=O | inconclusive: 31.6 µM [inhibitor, partial curve]
3 | COc1cc(O)oc1C=Nc1ccc(C(=O)O)cc1 | inconclusive: 35.5 µM [inhibitor, single point]
4 | COc1cc(OC)cc(C(=O)Nc2ccc3c(c2)OCCO3)c1 | inconclusive: 17.8 µM [inhibitor, partial curve] and inconclusive: 25.1 µM [inhibitor, partial curve, poor fit]
5 | N/C(=N\OC(=O)c1ccccc1Cl)c1ccccc1 | inconclusive: 28.2 µM [inhibitor, partial curve, poor fit]
6 | O=S(=O)(O)c1cc(O)c2cc(Nc3ccccc3)ccc2c1 | inconclusive: 28.2 µM [inhibitor, partial curve]
7 | O=C(/C=C/c1ccco1)N(c1ccccn1)c1ccccn1 | inconclusive: 14.1 µM [inhibitor, partial curve, poor fit]
8 | CCOC(=O)c1cccc(-n2c(C)nc3ccccc3c2=O)c1 | inactive
9 | COc1ccc(OC)c(-c2csc(NC(=O)COC(=O)c3ccc(NC(=O)CC#N)cc3)n2)c1 | inconclusive: 20 µM [inhibitor, single point]
10 | CCn1cc(C(=O)NCc2ccco2)c(=O)c2cc(F)c(N3CCN(C(=O)c4ccco4)CC3)cc21 | inactive
11 | CC1CCc2sc(C(=O)NC3CCCCC3)cc2C1 (stereo not drawn) | inactive
12 | COc1cc(/C=C2/SC(=S)N(Cc3ccccc3)C2=O)cc(OC)c1O | inconclusive: 12.6 µM [inhibitor, partial curve, poor fit]
13 | O=Cc1cccc(OC(=O)/C=C/c2ccco2)c1 | inconclusive: 14.1 µM [inhibitor, partial curve, poor fit]
14 | CCOC(=O)c1[nH]c(C)c(C(=O)OC)c1C | inconclusive: 39.8 µM [inhibitor, single point]
15 | CCOC(=O)c1c(S(=O)(=O)NCC(=O)Nc2ccc(F)cc2C)c(C)n(C)c1C | inconclusive: 31.6 µM [inhibitor, single point]
16 | Cc1cccc(C(=O)Oc2ccc(/C=N/NC(=O)c3cc(O)cc(O)c3)cc2)c1 | inconclusive: 11.2 µM [inhibitor, partial curve, poor fit]
17 | O=S(=O)(NCC(O)COCc1ccco1)c1cccs1 (stereo not drawn) | inconclusive: 22.4 µM [inhibitor, partial curve, poor fit]
18 | COc1ccc(N2CCN(c3ncnc4c3cnn4-c3ccc(F)cc3)CC2)cc1 | inactive
19 | Oc1cc(O)cc(/C=C/c2ccc(O)c(O)c2)c1 | inconclusive: 22.4 µM [inhibitor, single point]
20 | O=C(O)CSc1cc(C(=O)c2cc(F)ccc2O)cn2c(=O)c3c(-c4ccccc4)csc3nc12 | inconclusive: 39.8 µM [inhibitor, single point]
21 | CCCSC1=N/C(=C\c2ccc([N+](=O)[O-])o2)C(=O)S1 | inconclusive: 28.2 µM [inhibitor, single point]
22 | Cc1nnc(N/N=C/c2ccc([N+](=O)[O-])cc2)n1N | inactive
23 | COc1ccc(NC(=O)COC(=O)c2cc3c(s2)CCC3)cc1 | inconclusive: 7.08 µM [inhibitor, partial curve, poor fit]

Row | Compound | Potency
24 | COc1ccc(CC(=O)Nc2cc(C)ccc2O)cc1OC | inactive
25 | Cc1ccc(-n2nnc(-c3nccn3C)n2)cc1 | inconclusive: 28.2 µM [inhibitor, single point]
26 | O=C1C=CC(n2cc(F)c(=O)[nH]c2=O)O1 (stereo not drawn) | inconclusive: 17.8 µM [inhibitor, partial curve, poor fit]
27 | COc1ccc(-c2c(C)nn(-c3ccccc3)c2NC(C)=O)cc1OC | inconclusive: 31.6 µM [inhibitor, single point]
28 | C[C@@H](CO)NC(=O)c1ccc2c3n(nc2c1)-c1ccccc1CO3 | inconclusive: 28.2 µM [inhibitor, partial curve]
29 | COc1ccc(N(CC(C)C)S(=O)(=O)c2nnc(NC(=O)c3ccco3)s2)cc1 | inactive
30 | FC(F)Oc1ccc(NC(=S)NNc2ccnc3cc(Cl)ccc23)cc1 | inactive
31 | C=CCOC(=O)c1cc(-c2ccc(/C=C3\C(=O)NC(=O)C(C#N)=C3C)o2)ccc1Cl | inconclusive: 39.8 µM [inhibitor, single point]
32 | O=C(NN=C1CCCC1)c1cc(O)cc(O)c1 | inconclusive: 28.2 µM [inhibitor, single point]
33 | CC(=C/C(=O)O)/C=C/c1ccc(Cl)o1 | inconclusive: 20 µM [inhibitor, partial curve, poor fit]
34 | Cc1ccc(NC(=O)CN(C)C(=O)c2cccc(S(=O)(=O)NCc3ccco3)c2)cc1 | inactive
35 | O=C(c1ccccc1)c1cc(-c2ccccc2)on1 | inconclusive: 10 µM [inhibitor, partial curve]
36 | Nc1ccc2nc(-c3ccccc3)sc2c1 | inconclusive: 25.1 µM [inhibitor, partial curve]
37 | CCc1ccc(C(=O)CSc2nc(N)cc(=O)[nH]2)cc1 | inactive
38 | CCOC(=O)N1CCN(S(=O)(=O)N2CCCC(C(=O)NCCCN3CCCCC3)C2)CC1 (stereo not drawn) | inactive
39 | CCN(CC)CCOc1c(Br)ccc2c1sc1nc3n(c(=O)c12)CCC3 | inactive
40 | O=C(CSc1nc(-c2ccc(F)cc2)nc2ccc(F)cc12)Nc1cccc(C(=O)O)c1 | inconclusive: 20 µM [inhibitor, partial curve, poor fit]
41 | Cc1ccc(C(=O)ONc2ccc(N=NC(=O)c3ccccc3O)cc2)cc1 | inconclusive: 3.55 µM [inhibitor, full curve, poor fit]
42 | C=CCNC(=O)c1ccc(Cn2c(=S)[nH]c3cc4c(cc3c2=O)OCO4)cc1 | inconclusive: 20 µM [inhibitor, partial curve, poor fit]
43 | O=C(O)/C(=C\c1ccccc1)c1ccc2ccccc2c1 | inactive
44 | CCOc1ccc2cc(C3CC(c4ccco4)=NN3S(C)(=O)=O)c(=O)[nH]c2c1 (stereo not drawn) | inactive
45 | CC(C)(CS(=O)(=O)[O-])NC(=O)CC[N+](C)(C)CCO | active: 2.24 µM
46 | CCOC(=O)c1noc2ncnc(NCc3ccccc3OC)c12 | inconclusive: 25.1 µM [inhibitor, partial curve, poor fit]

Row | Compound | Potency
47 | COc1ccc(-n2c(N)c(C(=O)NCC3CCCO3)c3nc4ccccc4nc32)c(OC)c1 (stereo not drawn) | inactive
48 | COc1ccc(/C=C/C(=O)O)cc1S(=O)(=O)NC1CCS(=O)(=O)C1 (stereo not drawn) | inconclusive: 31.6 µM [inhibitor, partial curve, poor fit]
49 | O=C(O)c1ccc2c(=O)n(-c3ccccc3F)c(=S)[nH]c2c1 | inactive
50 | CCn1c(=O)c(C(=O)CN(C)Cc2cccc(OC)c2OC)c(N)n(Cc2ccccc2)c1=O | inactive
51 | O=C(Nc1ccccc1C(=O)N/N=C/c1ccco1)c1ccc(F)cc1 | inconclusive: 20 µM [inhibitor, partial curve, poor fit]
52 | CC1CCN(C(=O)COC(=O)c2cccs2)CC1 | inconclusive: 2.24 µM [inhibitor, partial curve, poor fit]
53 | COc1ccccc1NC(=O)c1ccc(NS(=O)(=O)c2ccc(F)c(Cl)c2)cc1 | inactive
54 | Cc1ccsc1C(=O)Nc1nc2ccccc2[nH]1 | inconclusive: 20 µM [inhibitor, partial curve]
55 | Cc1ccc(CNC(=O)c2ccccc2N)cc1 | inconclusive: 35.5 µM [inhibitor, single point]
56 | O=C(CSc1nnc(-c2ccncc2)n1-c1ccc(F)cc1)NC(=O)NCc1ccco1 | inconclusive: 35.5 µM [inhibitor, single point]
57 | Cc1noc(C)c1COc1cccc(C(=O)OCCOc2ccc(F)cc2)c1 | inactive
58 | O=C1C=C(O)CC(c2ccco2)C1 (stereo not drawn) | inconclusive: 28.2 µM [inhibitor, partial curve, poor fit]
59 | CCn1c(C)nc2cc(-c3nc4n(n3)Cc3ccccc3-4)ccc21 | inconclusive: 14.1 µM [inhibitor, partial curve]
60 | Cc1c(C(=O)OCC2CCCO2)[nH]c2c1C(=O)CC(c1ccco1)C2 (stereo not drawn) | inconclusive: 20 µM [inhibitor, partial curve]
61 | O=S(=O)(O)c1cccc2c(N=Nc3ccc(O)c4ncccc34)cccc12 | inconclusive: 31.6 µM [inhibitor, single point]
62 | O=C1ON=C(c2ccccc2)/C1=C/c1ccc(-c2ccccc2[N+](=O)[O-])o1 | inactive
63 | Cc1ccc(CSc2nc(-c3ccc(C(C)(C)C)cc3)nc3cc(=O)[nH]n23)cc1 | inconclusive: 31.6 µM [inhibitor, partial curve, poor fit]
64 | O=C(N/N=C/c1ccc(OC(=O)c2ccccc2)cc1)c1cccnc1 | inconclusive: 25.1 µM [inhibitor, single point]
65 | CC(=C\C(=O)O)/C(=C/c1ccc(C)o1)C(=O)O | inconclusive: 28.2 µM [inhibitor, partial curve, poor fit]
66 | Cc1ccc(CNc2ccc(O)cc2)cc1 | inconclusive: 35.5 µM [inhibitor, single point]
67 | Cc1n[nH]c(=S)n(NC(=O)/C=C/C(=O)Nn2c(=S)[nH]nc(C)c2=O)c1=O | inconclusive: 25.1 µM [inhibitor, partial curve, poor fit]
68 | Cc1cc(NC(=O)CN(C)CC(=O)Nc2ccc(Cl)cc2)no1 | inactive
